# Reference: PubChem BioAssay AID2546 (National Center for Advancing Translational Sciences (NCATS), 2010)
# Among all 310,000 compounds or so, about 11,000 (3.5%) were called active. Roughly 8% stayed inconclusive and do not appear here. Calls come from the whole dose curve; as a rule, active = well fitted inhibition curve with a large enough effect; inconclusive = small, poorly fitted or top-dose-only effect, or effect the other way; inactive = flat fitted curve, though single readings scatter. This is a selection; strong and weak results do not stand in their true shares.
# Assay: VP16 counterscreen qHTS for inhibitors of ROR gamma transcriptional activity;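 note: Gal4-VP16 expression switched on by copper sulfate through the metallothionein promoter; nearly all actives have a fitted effect of over 50% in size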
# Settings: Drosophila S2 Gal4-VP16 UAS-luciferase, luminescence, 20 h; series mostly up to 53.6 µM; activity, negative = inhibition: at the top concentration
# Source text: NIH Molecular Libraries Probe Production Network [MLPCN]
# NIH Chemical Genomics Center [NCGC]
# Assay Provider: Dan Littman, New York University
# The retinoic acid-related orphan receptor (ROR) gamma is a transcription factor that has a central role in the differentiation of Th17 cells, a subset of T helper cells that secrete the inflammatory cytokines IL-17, IL-17F, and IL-22. Th17 cells have been implicated in graft versus host disease, autoimmune disease and asthma. ROR gamma is induced in naive T helper cells in the presence of TGF-beta combined with IL-6, IL-21, or IL-23, and thereafter directs the expression of the Th17 lineage cytokines. To identify nonspecific inhibitors, a Drosophila Schneider cell line was stably transfected with two vectors: a gene expressing a fusion of the Gal4 DNA binding domain and VP16 transactivation domain under the control of the metallothionine promoter and a Photinus luciferase reporter regulated by the Gal4 binding site enhancer, UAS. […] Small molecule inhibitors that inhibit components common to the RORgt and VP16 assays, such as the Gal4 DNA binding domain or the UAS luciferase reporter, will be active in both assays and thus scored as nonspecific.
# For screening, 600 cells in 4 uL/well were dispensed into white solid 1536-well plates (Grenier) using a solenoid-based dispenser. Following transfer of 23 nL compound or DMSO vehicle by a pin tool, the plates were incubated 1 hr at ambient temperature, and 1 uL/well copper sulfate (700 uM final concentration) was added. The plates were centrifuged 15 s at 1000 RPM and incubated 20 hr at ambient temperature. After addition of 1.5 uL Photinus luciferase detection reagent, the plates were incubated 10 min at ambient temperature and then read by a ViewLux (Perkin Elmer) to detect luminescence.
# % is set by controls: 0 for no effect and ±100 for the full control effect; potency is the fitted concentration of half-maximal effect.
SMILES,"activity, negative = inhibition",Potency
C/C=C(/C)C(=O)OC1Cc2c(ccc3ccc(=O)oc23)OC1(C)C (stereo not given),inactive: 9.01%,
Cc1cccc(C(=O)NN/C=C/C(=O)c2ccccc2)c1,,active: 5.01 µM
CC(=O)N1[C@H](C)C=C[C@]1(Cc1ccccc1)C(=O)NCc1cc(F)cc(C(F)(F)F)c1,inactive: 8.7%,
CC1=C(CC(=O)O)c2cc(F)ccc2/C1=C/c1ccc(S(C)=O)cc1 (stereo not given),inactive: 4.33%,
OCCN1CCN(CC/C=C2\c3ccccc3Sc3ccc(C(F)(F)F)cc32)CC1,inactive: 5.47% [at 17 µM],
COc1ccc(C2/C=C\CN(C(=O)C3CC3)[C@H](Cc3ccccc3)C(=O)N2Cc2ccc(F)cc2)cc1 (stereo not given in full),inactive: -19.7%,
COC(=O)Nc1nc2ccc(Sc3ccccc3)cc2[nH]1,,inactive
CCOC(=O)Cc1csc(NC(=O)/C=C\c2ccccc2Cl)n1,inactive: -29.9%,
N[C@@H](Cc1c[nH]c2ccc(O)cc12)C(=O)O,inactive: -8.42%,
CCCCCCCCCCCCCCCC(O)C(N)CO (stereo not given),inactive: -5.72%,
COc1ccc(Br)cc1[C@H]1[C@@H]2C=CCC[C@@]2(C)C(=O)N1Cc1ccccc1,inactive: -9.04%,
Cc1cc(C)nc(NS(=O)(=O)c2ccc(N/C=C/C(=O)c3ccc(Cl)cc3)cc2)n1,inactive: -28.6%,
COc1ccc([C@H]2CC(=O)c3c(O)cc(O)cc3O2)cc1O,inactive: 8.81%,
COc1cc(OC)c2c(-c3ccccc3)cc(=O)oc2c1C(CCN1CCCCC1)c1ccc2c(c1)OCO2 (stereo not given),inactive: -0.296%,
O=C(O)/C(=C1/OC(=O)c2ccccc21)c1ccccc1,inactive: -1.73%,
O=C(Nc1ccc(-c2nc3ccccc3s2)cc1)C1=COCCO1,,active: 4.47 µM
O=C(O)c1cccc(-n2cccc2/C=C/[N+](=O)[O-])c1,inactive: 5.78%,
Cc1c2oc3c(C)ccc(C(=O)N[C@@H]4C(=O)N[C@@H](C(C)C)C(=O)N5CCC[C@@H]5C(=O)N(C)CC(=O)N(C)[C@@H](C(C)C)C(=O)O[C@H]4C)c3nc-2c(C(=O)N[C@@H]2C(=O)N[C@@H](C(C)C)C(=O)N3CCC[C@@H]3C(=O)N(C)CC(=O)N(C)[C@@H](C(C)C)C(=O)O[C@H]2C)c(N)c1=O,inactive: -4.61%,
O=C(Nc1ccc2c(c1)OCCO2)C(=O)c1c[nH]c2ccccc12,,active: 3.16 µM
NNC(=O)[C@H]1C[C@@H]1c1ccccc1,inactive: -6.06%,
CN1CCCC[C@@H]1CCN1c2ccccc2Sc2ccc(S(C)=O)cc21 (stereo not given in full),inactive: 2.27% [at 17 µM],
CCN1C(=S)N[C@@H](CCc2ccccc2)[C@H](C(=O)OC)[C@H]1C,inactive: -15.7%,
O=C(NC1CC1)C1=C[C@H](C2CCCCC2)C[C@H](OCc2ccc(CO)cc2)O1,inactive: 2.47%,
c1ccc2sc(SSc3nc4ccccc4s3)nc2c1,inactive: -4.99%,

SMILES,"activity, negative = inhibition",Potency
Nc1ccccc1C(=O)NNc1ncc(C(F)(F)F)cc1Cl,,active: 1 µM
C=Cc1c(C)c2cc3[nH]c(cc4nc(cc5nc(cc1[nH]2)C(C)=C5CCC(=O)O)C(CCC(=O)O)=C4C)c(C)c3C=C,inactive: 0.107%,
COC(=O)[C@H](C)[C@@H]1C[C@@]1(C)[C@@H](NC(=O)OCc1ccccc1)c1ccccc1,,inactive
COc1ccc(-c2cc(C(F)F)nc(-n3nc(C)cc3C)n2)cc1,,active: 1.41 µM
COc1ccc(S(=O)(=O)N2c3ccc(Cl)cc3[C@](O)(c3ccccc3Cl)[C@@H]2C(=O)N2CCC[C@H]2C(N)=O)cc1OC,inactive: -7.22%,
O=C(Nc1ccccc1Cl)/C(Cl)=C(\Cl)S(=O)c1ccccc1 (stereo not given),,active: 0.794 µM
CCO[C@H]1OC(C(=O)N2CCOCC2)=C[C@@H](c2ccc(Br)cc2)[C@@H]1CCCO,inactive: 1.5%,
CN(C)CCn1c(NC(=O)c2ccc(Cl)cc2)nc2ccccc21,,active: 1.41 µM
Cn1nnnc1SCC1=C(C(=O)O)N2C(=O)[C@@H](NC(=O)[C@H](O)c3ccccc3)[C@H]2SC1,inactive: -0.928%,
C=C/C1=C/Cc2ccccc2[C@H](C[N+](=O)[O-])C(C(=O)OC)(C(=O)OC)C1,inactive: 3.13%,
COc1ccc2c(c1)C(=O)[C@@H](O)[C@H](c1ccc(OC)c(Br)c1)O2,inactive: -14.1%,
COc1ccc2c(=O)c(-c3ccc4c(c3)OCO4)coc2c1,inactive: -26.6%,
O=C1/C(=C/c2ccc(O)c(O)c2)Oc2cc(O)ccc21,inactive: -4.92%,
COc1ccc(C2Oc3ccccc3C3=C2C(c2cccs2)n2ncnc2N3)cc1 (stereo not given),,active: 2.51 µM
O=C(N/C(=C\c1ccco1)C(=O)N1CCCC1)c1cccs1,inactive: 15.5% [at 0.365 µM],
N#C/C(=C\c1ccc(N2CCOCC2)o1)c1nc2ccccc2[nH]1,inactive: 0%,
COC(=O)[C@H](C)[C@H]1C[C@]1(C)[C@H](NC(=O)OCc1ccccc1)c1ccccc1,inactive: 9.43%,
COc1ccccc1/C=C/C(=O)NC(=S)N1CCOCC1,,active: 8.91 µM
COC1=C(OC)C(=O)C(CCCCCCCCCCO)=C(C)C1=O,inactive: 4.38%,
CCS(=O)(=O)N1Cc2ccccc2CC1C(=O)Nc1nc2ccc(F)cc2s1 (stereo not given),,active: 11.2 µM
CCCCc1ccc(/C=C2\C(=O)ON=C2c2ccccc2)s1,inactive: -11.7%,
COc1ccc(CCN2C(=O)C3C4C=CC(C3C2=O)C2C(=O)N(CCc3ccc(OC)c(OC)c3)C(=O)C42)cc1OC (stereo not given),,active: 8.91 µM
O=S(=O)(c1ccccc1)N1CCN(c2cc(-c3ccccc3)nc3ncnn23)CC1,,active: 5.62 µM
CCOC(=O)/C(C#N)=C\c1cc(C)n(-c2ccccc2)c1C,inactive: -22.6%,

SMILES,"activity, negative = inhibition",Potency
O=C(NC(=S)NCCc1ccccc1)C1CCCCC1,,active: 3.98 µM
CCCC1CC(C(=O)NC(C(C)Cl)C2OC(SC)C(O)C(O)C2O)N(C)C1 (stereo not given),inactive: -7.26%,
CN1CCN(CC/C=C2/c3ccccc3Sc3ccc(S(=O)(=O)N(C)C)cc32)CC1,inactive: 9.96%,
C=CCOC(=O)/C(=C\c1cccc2ccccc12)NC(=O)c1ccccc1,inactive: 4.37%,
O=C(N/N=C/C=C/c1ccco1)c1cccnc1,inactive: 12.5%,
CC[C@H]1OC(=O)[C@H](C)[C@@H](O[C@H]2C[C@@](C)(OC)[C@@H](O)[C@H](C)O2)[C@H](C)[C@@H](O[C@@H]2O[C@H](C)C[C@H](N(C)C)[C@H]2O)[C@](C)(O)C[C@@H](C)C(=O)[C@H](C)[C@@H](O)[C@]1(C)O,inactive: -2.27%,
COC(C[C@@H](O)CC(=O)[C@@H](C)OCc1ccccc1)OC,inactive: -0.47%,
CCOC(=O)/C(C#N)=C/c1c[nH]c2ccccc12,inactive: 14.8%,
COC(=O)c1sccc1NC(=O)/C=C\c1ccc(Cl)cc1Cl,inactive: -3.03%,
Fc1ccc(SCCc2ccccn2)cc1,inactive: 4.25%,
Cc1nc(CS(=O)(=O)c2ccc(Cl)cc2)cc(Sc2ccc(Cl)cc2)n1,,active: 11.2 µM
NC(=O)CC[C@@H]1NC(=O)[C@H](Cc2ccccc2)NC(=O)[C@H](Cc2ccc(O)cc2)NC(=O)[C@@H](N)CSSC[C@@H](C(=O)N2CCC[C@H]2C(=O)N[C@@H](CCCN=C(N)N)C(=O)NCC(N)=O)NC(=O)[C@H](CC(N)=O)NC1=O,,inactive
C#CCOc1c(Br)cc(/C=N\NC(=O)CN2CCOCC2)cc1OCC,,active: 35.5 µM
COc1ccc(N=C2NC(=O)/C(=C\c3ccco3)S2)cc1,inactive: -5.17% [at 10 µM],
Cc1ccc(C(C)C)cc2c(C)ccc1-2,inactive: 0.89%,
Cc1ccc(/C=N/NC(=O)c2c(-c3ccccc3)noc2C)c(O)c1,,active: 3.16 µM
NNC(=O)[C@@H]1C[C@@H]1c1ccccc1,inactive: -4.5%,
O=C(Nc1cccc(C(F)(F)F)c1)C1CCN(S(=O)(=O)c2ccc(N3CCCC3=O)cc2)CC1,,active: 12.6 µM
CC(C)[C@H](NC(=O)N1CCn2c1nc1ccccc12)C(=O)N[C@@H](C(=O)O)c1ccccc1,inactive: 2.58%,
CSC(SC)=C(C#N)C(=O)c1ccccc1,,active: 11.2 µM
Cc1ccc(S(=O)(=O)N(C)C)cc1NC(=S)NC12CC3CC(CC(C3)C1)C2,,active: 5.62 µM
COc1ccc2c(c1)O[C@@H](c1ccc3c(c1)OCO3)[C@H](OC(=O)N[C@H](C)C1CCCCC1)C2=O,inactive: -14.7%,
